Test results as given in patent US4450269A, “Mono-5-substituted-3-chloro-4H-1,2,6-thiadiazin-4-one antifungal agents” (FMC Corporation, priority 1980, dated 1984).

Legend:
Erysiphe polygoni = tested on: Erysiphe polygoni; set-up: key to Dead Plant, curative, bean powdery mildew: DP: Dead Plant; key to Phytotoxicity, curative, bean powdery mildew: b: Slight Phytotoxicity; settings: in vivo
Method: In the curative tests the plants were inoculated with the appropriate pathogen 24 hours before chemical treatment. The following host-parasite combinations were used: | Erysiphe polygoni DC Spores of bean rust and bean powdery mildew were obtained from diseased plants. […] Beans (c.v. `Pinto`) were inoculated with rust as described in Example IV-A. Beans (c.v. `Bountiful`) at primary leaf stage were inoculated with powdery mildew by shaking diseased leaves over the test plants, thereby creating a spore deposit on leaves of the test plants. […] All of the plants except those inoculated with bean powdery mildew were incubated in the moisture chamber (21° C.) for 24 hours. The bean powdery mildew inoculated plants were incubated in the greenhouse. The test chemical was sprayed on the foliage of the plants at 150 ppm 24 hours after inoculation. The bean and rice plants were removed from the moisture chamber and allowed to dry before chemical treatment. After treatment the plants were incubated in the greenhouse for 6-10 days. The sugar beets were sprayed while still wet, after which they were immediately returned to the moisture chamber for two days and then to the greenhouse for 10-14 days.

Uromyces phaseoli = tested on: Uromyces phaseoli; set-up: key: b: Slight Phytotoxicity; settings: in vivo
Method: The foliage of a tomato plant in the four leaf stage and a pinto bean in the primary leaf stage was sprayed with the test chemicals at a concentrations of 150 ppm on a weight/volume basis, and the plant allowed to dry overnight.
Sporangia of Phytophthora infestans (late blight fungus) were harvested from cultures grown on lima bean agar for 10 to 14 days. A water suspension of sporangia (2×10^5 sporangia/ml) was incubated at 12° C. for two hours in order to provide a zoospore suspension. Spores of Uromyces phaseoli (bean rust fungus) were collected from diseased plants and a 2% spore powder mixture prepared using ABB Pyrax talc as a diluent.
The tomato plants were inoculated in a spray hood with the zoospore suspension, then immediately incubated in a humidity chamber at 100% relative humidity at 18°-20° C. for four to five days. The bean plants were inoculated by dusting the spore powder onto the leaves. This was accomplished by placing the spore powder in a cheesecloth bag and shaking the bag over the leaves. The inoculated plants were placed in the humidity chamber at 100% relative humidity and 21° C. for 24 hours and then placed in the greenhouse for four to six days until disease symptoms developed.
The percent disease control was then determined by comparing the disease incidence in treated plants and untreated check plants.

Row | SMILES | Dead Plant, curative, bean powdery mildew (Erysiphe polygoni) | Phytotoxicity, foliar, bean rust (Uromyces phaseoli) | also measured
1 | Cc1cc(Oc2nsnc(Cl)c2=O)cc(C)c1Br [Compound 60, 3-[(4-bromo-3,5-dimethyl)-phenoxy]-5-chloro-4H--1,2,6-thiadiazin-4-one] | DP | – | –
2 | Cc1cc(Oc2nsnc(Cl)c2=O)cc(C)c1Cl [Compound 59, 3-chloro-5-[(4-chloro-3,5-dimethyl)phenoxy]-4H--1,2,6-thiadiazin-4-one] | DP | – | –
3 | Cc1cc(Cl)ccc1Oc1nsnc(Cl)c1=O [Compound 55, 3-chloro-5-(4-chloro-2-methylphenoxy)-4H--1,2,6-thiadiazin-4-one] | – | b | –
4 | CC(=O)Nc1ccc(Oc2nsnc(Cl)c2=O)cc1 [Compound 8, 5-(4-acetylaminophenoxy)-3-chloro-4H--1,2,6-thiadiazin-4-one] | – | b | –
5 | O=c1c(Cl)nsnc1Oc1cc(Cl)cc(Cl)c1 [Compound 20, 3-chloro-5-(3,5-dichlorophenoxy)-4H--1,2,6-thiadiazin-4-one] | – | – | Phytotoxicity, curative, bean powdery mildew (Erysiphe polygoni): b
6 | O=c1c(Cl)nsnc1Oc1cccc(Cl)c1Cl [Compound 19, 3-chloro-5-(2,3-dichlorophenoxy)-4H--1,2,6-thiadiazin-4-one] | DP | – | –
7 | O=c1c(Cl)nsnc1Oc1cccc(Cl)c1 [Compound 13, 3-chloro-5-(3-chlorophenoxy)-4H--1,2,6-thiadiazin-4-one] | – | b | –
